From the supplement of paper PMC12645437, “Orthogonal IMiD-Degron Pairs Induce Selective Protein Degradation in Cells” (ACS Chemical Biology, 2025) come the findings set out here.

Some of the results follow.
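Also: jurkat cells carrying a lentiviral library of mutant zinc finger degrons fused to EGFP plus mCherry, mCherry+ cells FACS sorted, degron abundance counted by next-generation sequencing.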

The test addresses no compound (DMSO). The test can be described thus: log2 fold change of degron read counts, EGFP-low vs EGFP+ sorted cells; higher = lower degron-EGFP level without compound (poor expression or instability). The settings on record: compound: DMSO control; 18 h.
Consider FECNQCGAEFTQKGNLLRHIKL, for which the “log2 fold change of degron read counts” value is -1.45.

As to FRCEQCGAGFTQKGNLLRHIKL, the “log2 fold change of degron read counts” value is -1.63.

As for FWCDICGAYFTQKGNLLRHIKL, the “log2 fold change of degron read counts” value stood at 0.55.

For the sequence FDCPICGHEFTQKGNLLRHIKL, the “log2 fold change of degron read counts” value is -1.31.

In the case of FFCEQCGAYFTQKGNLLRHIKL, the “log2 fold change of degron read counts” value was -0.51.

As to FTCSVCGHLFTQKGNLLRHIKL, the “log2 fold change of degron read counts” value was -0.281.

As for FDCEQCGAPFTQKGNLLRHIKL, the “log2 fold change of degron read counts” value was -2.95.

As for FICSVCGHVFTQKGNLLRHIKL, the “log2 fold change of degron read counts” value was -0.228.

As to FACEQCGASFTQKGNLLRHIKL, the “log2 fold change of degron read counts” value is -2.63.

In the case of FCCEQCGAAFTQKGNLLRHIKL, the “log2 fold change of degron read counts” value is -1.22.

On to FCCNQCGHKFTQKGNLLRHIKL, for which the “log2 fold change of degron read counts” value was determined as 0.111.

In the case of FRCEICGRWFTQKGNLLRHIKL, the “log2 fold change of degron read counts” value was -0.164.

Regarding FYCNQCGRPFTQKGNLLRHIKL, the “log2 fold change of degron read counts” value is 0.465.

As to FVCNQCGRNFTQKGNLLRHIKL, the “log2 fold change of degron read counts” value is -0.37.

As to FYCPQCGASFTQKGNLLRHIKL, the “log2 fold change of degron read counts” value is -0.232.

For FVCNICGALFTQKGNLLRHIKL, the “log2 fold change of degron read counts” value came to 0.258.

In the case of FACEICGRWFTQKGNLLRHIKL, the “log2 fold change of degron read counts” value turned out to be 0.0696.

For FFCNICGAAFTQKGNLLRHIKL, the “log2 fold change of degron read counts” value came to 0.104.

Consider FICEQCGATFTQKGNLLRHIKL, for which the “log2 fold change of degron read counts” value is -3.24.

In the case of FSCPICGHWFTQKGNLLRHIKL, the “log2 fold change of degron read counts” value amounted to 0.283.

With FNCEQCGAHFTQKGNLLRHIKL, the “log2 fold change of degron read counts” value is -2.72.

On to FHCEICGAHFTQKGNLLRHIKL, for which the “log2 fold change of degron read counts” value is -1.46.

Turning to FDCNICGANFTQKGNLLRHIKL, the “log2 fold change of degron read counts” value was -0.475.

FCCNVCGAHFTQKGNLLRHIKL: the “log2 fold change of degron read counts” value is -0.0947.

Regarding LCCNQCGFGCTQKGNLLRHIKL, the “log2 fold change of degron read counts” value came out at 0.937.

As to FYCNICGAEFTQKGNLLRHIKL, the “log2 fold change of degron read counts” value is -0.936.

For the sequence LRCEICGFYCTQKGNLLRHIKL, the “log2 fold change of degron read counts” value stood at 1.39.

As to FQCPVCGAPFTQKGNLLRHIKL, the “log2 fold change of degron read counts” value turned out to be 0.533.

Regarding LHCNQCGFWCTQKGNLLRHIKL, the “log2 fold change of degron read counts” value came to 1.94.

FKCNQCGHSFTQKGNLLRHIKL: the “log2 fold change of degron read counts” value is -0.45.

Take FRCSVCGHTFTQKGNLLRHIKL: the “log2 fold change of degron read counts” value was -0.0669.

For the sequence LECNQCGFYCTQKGNLLRHIKL, the “log2 fold change of degron read counts” value is 0.772.

On to LWCNQCGFLCTQKGNLLRHIKL, for which the “log2 fold change of degron read counts” value was determined as 2.68.

For FVCNQCGAWFTQKGNLLRHIKL, the “log2 fold change of degron read counts” value amounted to 0.549.

On to FSCNICGAEFTQKGNLLRHIKL, for which the “log2 fold change of degron read counts” value is -1.83.

For the sequence FMCPICGRQFTQKGNLLRHIKL, the “log2 fold change of degron read counts” value stood at 0.239.

Regarding LFCPICGFVCTQKGNLLRHIKL, the “log2 fold change of degron read counts” value is 1.09.

With FHCPICGAFFTQKGNLLRHIKL, the “log2 fold change of degron read counts” value is 0.327.

Take FLCEICGRQFTQKGNLLRHIKL: the “log2 fold change of degron read counts” value is -1.08.

As for FRCPICGHIFTQKGNLLRHIKL, the “log2 fold change of degron read counts” value was -0.141.

For the sequence FLCEICGRLFTQKGNLLRHIKL, the “log2 fold change of degron read counts” value is -0.458.

For FWCNQCGAVFTQKGNLLRHIKL, the “log2 fold change of degron read counts” value was 1.14.

FKCPICGAKFTQKGNLLRHIKL: the “log2 fold change of degron read counts” value was -1.66.

Turning to FQCPQCGAMFTQKGNLLRHIKL, the “log2 fold change of degron read counts” value was -1.16.

Take FSCNICGAGFTQKGNLLRHIKL: the “log2 fold change of degron read counts” value is -0.237.

In the case of FECEICGRPFTQKGNLLRHIKL, the “log2 fold change of degron read counts” value is -1.39.

Take LVCNQCGFRCTQKGNLLRHIKL: the “log2 fold change of degron read counts” value was 0.532.

As to FRCNICGAPFTQKGNLLRHIKL, the “log2 fold change of degron read counts” value was -0.107.

On to FNCEICGASFTQKGNLLRHIKL, for which the “log2 fold change of degron read counts” value is -1.27.

For FKCDVCGACFTQKGNLLRHIKL, the “log2 fold change of degron read counts” value was -1.31.
